Results from patent US20240262930A1.

Target: MUC1-C antigen (human) (UniProt P15941)
Test: ELISA on MUC1-C antigen, antibody at 1 ug/ml

Sequence of UniProt P15941 (P15941 1098-1155 limits assumed): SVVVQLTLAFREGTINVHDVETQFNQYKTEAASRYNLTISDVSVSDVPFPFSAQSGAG

OD: 2.68 OD and 2.79 OD
B1: 3D1 (antibody, from another filing, V domains shown)
VH: QVQLQQSGAELVRPGSSVKISCKTSGYAFSNFWMNWVKQRPGQGLEWIGQIYPGDGDTNYNGKFKGKATLTADKSSSTAYMQLSSLTSEASAVYFCARSYYRSAWFAYWGQGTLVSVSA
VL: DILLTQSPAILSVSPGERVSFS[about 80 residues left out here]FGAGTKLELK

“And” between values parts separate entries of the source, which are not always exact repeats. Equal values may be shown once.
